{"source": "PubChem BioAssay AID463173", "about": "(ICCB-Longwood Screening Facility, Harvard Medical School, 2010)", "note": "In all, about 52,000 compounds went through this assay and about 4,300 (8.3%) were called active. No stated cut-off is given here; in the data, active means survival mostly below about 52% (no sharp cut-off); inactive means mostly above about 56%. This is one part of the list.", "data": [{"test_system": "DeltatarO mutant", "assay": "S. aureus survival, RN4220 and DeltatarO strains – OD600, teichoic acid synthesis inhibitors, primary screen (AID 463173)", "conditions": "S. aureus RN4220 wild type/DeltatarO growth, OD600, 18 h, active compounds read low, screened at 18.75 µg/mL (by protocol)", "values": [{"smiles": "Nc1nonc1/C(=N/OC(=O)c1ccccc1)N1CCOCC1", "survival": "inactive: 109%"}, {"smiles": "CC1=CS(=O)(=O)CC1", "survival": "inactive: 74%"}, {"smiles": "CCOC(=O)c1cnc2cc(C(F)(F)F)ccc2c1Nc1ccc(F)cc1F", "survival": "active: 2%"}, {"smiles": "CC(=O)Nc1ccc(S(=O)(=O)NC2(C(F)(F)F)C(=O)Nc3c2c(=O)[nH]c(=O)n3-c2cccc(Cl)c2)cc1", "note": "(centres undefined)", "survival": "inactive: 84%"}, {"smiles": "CCC(=O)N1CCc2cc(CNS(=O)(=O)c3cc(OC)ccc3OC)ccc21", "survival": "inactive: 135%"}, {"smiles": "Cc1ccc(C)c(NC(=O)C(=O)NCCCN2CCOCC2)c1", "survival": "inactive: 53%"}, {"smiles": "Cc1onc(-c2ccccc2Cl)c1C(=O)Oc1ccc(Cl)cc1Cl", "survival": "inactive: 87%"}, {"smiles": "CCOc1ccccc1NC(=O)COC(=O)CC(C)(C)CC1=NS(=O)(=O)c2ccccc2N1", "survival": "inactive: 79%"}, {"smiles": "CCOc1ccc(-n2ccnc2SCC(=O)Nc2cc(C)ccc2C)cc1", "survival": "inactive: 80%"}, {"smiles": "O=C(C1CCC1)N1CCCc2cc(S(=O)(=O)N3CCN(c4cccc(Cl)c4)CC3)ccc21", "survival": "inactive: 67%"}, {"smiles": "COc1cccc(-n2c(SCc3cccc(C)c3)nc3c([nH]c4ccccc43)c2=O)c1", "survival": "inactive: 75%"}, {"smiles": "CCOCc1cc(CN2CCN(c3cccc(C(F)(F)F)c3)CC2)c(O)c2ncccc12", "survival": "inactive: 62%"}, {"smiles": "CC1(C)CC(=O)C2=C(C1)OC(N)=C(C#N)C2c1cn(Cc2cccc(F)c2)c2ccccc12", "note": "(centres undefined)", "survival": "inactive: 92%"}, {"smiles": "COc1ccc(N(C(=O)c2ccccc2C)S(=O)(=O)c2ccc(Cl)cc2)cc1", "survival": "inactive: 140%"}, {"smiles": "Nc1ncc(S(=O)(=O)NCc2ccccc2)cn1", "survival": "inactive: 70%"}, {"smiles": "CN1C(C(=O)Nc2cccc(O)c2)=CC(c2cccs2)=NS1(=O)=O", "survival": "inactive: 87%"}, {"smiles": "COc1ccc(C(=O)c2cn(Cc3ccccc3)c3ccccc3c2=O)cc1OC", "survival": "inactive: 82%"}, {"smiles": "O=C(NCCc1nc2ccccc2n1Cc1ccccc1F)c1ccc(F)cc1", "survival": "inactive: 81%"}, {"smiles": "CC(C)(C)C(=O)CNS(=O)(=O)c1ccc(S(=O)(=O)NC2CCCCC2)cc1", "survival": "inactive: 79%"}, {"smiles": "O=C(NCCCN1CCN(c2ccccc2)CC1)c1sc2ncccc2c1-n1cccc1", "survival": "inactive: 91%"}, {"smiles": "CCOc1ccc(CCNC(=O)c2cnc3c(-c4ccc(F)cc4)c(C)nn3c2C)cc1", "survival": "inactive: 88%"}, {"smiles": "COc1cn(CC(=O)Nc2cc(C)cc(C)c2)c(CN2CCCCC2)cc1=O", "survival": "inactive: 91%"}, {"smiles": "CCC(C)S(=O)(=O)c1oc(-c2cccs2)nc1S(=O)(=O)c1ccccc1", "note": "(centres undefined)", "survival": "inactive: 53%"}, {"smiles": "CCOc1ccccc1CNCc1c(C(=O)O)c(C)n(Cc2ccc(C)cc2)c1C", "survival": "inactive: 92%"}, {"smiles": "CN1CCc2nc3sc(C(=O)c4ccc(F)cc4)c(N)c3cc2C1", "survival": "inactive: 71%"}, {"smiles": "COc1cccc(-c2nnc(SCC(=O)N(C)C3CCCCC3)o2)c1", "survival": "inactive: 72%"}, {"smiles": "CN1C(=O)c2cccc3c(S(=O)(=O)Nc4cccc(C(=O)O)c4)ccc1c23", "survival": "inactive: 74%"}, {"smiles": "CCCNC(=O)c1ccc(SC)cc1OC", "survival": "inactive: 98%"}, {"smiles": "CCOc1ccc(NC(=O)CN(Cc2ccccc2)S(=O)(=O)c2ccc3nc(C)sc3c2)cc1", "survival": "inactive: 87%"}, {"smiles": "CCOc1ccc(CCNC(=O)Cn2c(-c3cccs3)cc3ccccc32)cc1", "survival": "inactive: 85%"}, {"smiles": "COc1ccc(CN2C3CCCC2CC(NC(=O)NC2CCCCC2)C3)cc1", "note": "(centres undefined)", "survival": "inactive: 85%"}, {"smiles": "O=C(Nc1cc(Cl)cc(Cl)c1)c1cc(S(=O)(=O)NC2CCCC2)ccc1F", "survival": "inactive: 94%"}, {"smiles": "COc1ccc(CN(C)c2ccc(-c3nc(-c4ccc(OC)c(OC)c4)no3)cc2[N+](=O)[O-])cc1", "survival": "inactive: 62%"}, {"smiles": "Cc1cccc(N2CCN(C(=O)C3CCN(C(=O)c4cc5sccc5n4C)CC3)CC2C)c1", "note": "(centres undefined)", "survival": "inactive: 64%"}, {"smiles": "Cc1c(Cl)cccc1NC(=O)CCS(=O)(=O)c1ccc2c(c1)CC(C)N2C(=O)C1CC1", "note": "(centres undefined)", "survival": "inactive: 89%"}, {"smiles": "CCOC(=O)N1CCc2c(sc3c2c(=O)n(Cc2ccccc2)c(=O)n3CC(=O)Nc2ccc(F)cc2)C1", "survival": "inactive: 88%"}, {"smiles": "CNC(=O)CN1C(=O)COc2ccc(S(=O)(=O)N3CCCCCC3)cc21", "survival": "inactive: 91%"}, {"smiles": "COc1ccc(CNC(=O)c2cnn3c2NC(c2ccc(C)cc2)CC3C(F)F)cc1OC", "note": "(centres undefined)", "survival": "inactive: 86%"}, {"smiles": "CCN(CC)S(=O)(=O)c1ccc(OC)c(NC(=O)c2sc3ccccc3c2Cl)c1", "survival": "inactive: 83%"}, {"smiles": "Cc1ccc2c(c1)c1c(c(=O)n(Cc3ccccc3)c(=O)n1Cc1ccccc1F)n2C", "survival": "inactive: 67%"}, {"smiles": "CCOc1ccc(N2CC(NC(=O)c3ccc(Cl)cc3)CC2=O)cc1", "note": "(centres undefined)", "survival": "inactive: 73%"}, {"smiles": "CCOc1ccc(CNC(=O)Cn2c(=O)c3cccn3c3cccnc32)cc1", "survival": "inactive: 70%"}, {"smiles": "COc1ccc2c(c1)c(N1CCCC1=O)c(C(=O)Nc1ccc(OC)c(Cl)c1)n2C", "survival": "inactive: 78%"}, {"smiles": "CC(=O)c1cccc(NS(=O)(=O)c2c(C(=O)N3CCCCCC3)c(C)n(C)c2C)c1", "survival": "inactive: 76%"}, {"smiles": "COc1ccc(NC(=O)[C@H](Cc2ccccc2)N2Cc3ccccc3C2=O)cc1OC", "survival": "inactive: 81%"}, {"smiles": "COc1cccc(NC(=O)Cn2c(=O)n(Cc3ccc4c(c3)OCO4)c(=O)c3oc4ccccc4c32)c1", "survival": "inactive: 71%"}, {"smiles": "Cc1ccc(-n2ncc(C(=O)NCCN3CCN(C)CC3)c2C2CCN(C(=O)OC(C)(C)C)CC2)cc1C", "survival": "inactive: 70%"}, {"smiles": "COc1ccc(-n2c(SCCC(C)C)nc3sc4c(c3c2=O)CC(C(C)C)OC4)cc1", "note": "(centres undefined)", "survival": "active: 30%"}, {"smiles": "CC1CCC(NC(=O)c2ccc(CSc3nc4ccncc4n3Cc3ccc(F)cc3)cc2)CC1", "note": "(centres undefined)", "survival": "inactive: 59%"}, {"smiles": "Cc1nn(CCCC(=O)Nc2ccccc2C(F)(F)F)c(=O)c2nn(-c3ccccc3)c(C)c12", "survival": "inactive: 84%"}, {"smiles": "Cc1nn2c(-c3ccccc3)cc(-c3ccccc3)nc2c1-c1ccc(Cl)cc1", "survival": "inactive: 78%"}, {"smiles": "COc1ccc(C(CC(=O)Nc2ncccc2C)N2Cc3ccccc3C2=O)cc1OC", "note": "(centres undefined)", "survival": "inactive: 81%"}, {"smiles": "O=C(Nc1ccccc1)c1cccc(N2CCCS2(=O)=O)c1", "survival": "inactive: 113%"}, {"smiles": "Cc1cc(C)n2nc(CNC(=O)c3ccc(Cl)cc3)nc2n1", "survival": "inactive: 122%"}, {"smiles": "CCc1ccc(NC(=O)c2cc(S(=O)(=O)NC3CCCCCC3)ccc2F)cc1", "survival": "inactive: 102%"}, {"smiles": "Cc1nn(-c2ccccc2)c2c1N(CC(=O)N1CCN(c3ccc(Cl)cc3)CC1)C(=O)CS2", "survival": "inactive: 90%"}, {"smiles": "Cc1nn(-c2ccccc2)c2c1N(CCCC(=O)NC(C)c1ccccc1)C(=O)CS2", "note": "(centres undefined)", "survival": "inactive: 96%"}, {"smiles": "Cc1ccc(S(=O)(=O)c2cn(Cc3ccccc3)c3cc(N4CCOCC4)c(F)cc3c2=O)cc1", "survival": "inactive: 98%"}, {"smiles": "O=C(NCCNC1CCCC1)c1ccco1", "survival": "inactive: 94%"}, {"smiles": "CCc1ccc(CNC(=O)CCn2nc(C)c3c(C)n(-c4ccccc4)nc3c2=O)cc1", "survival": "inactive: 55%"}, {"smiles": "CCOC(=O)c1c(C)nc2c(c1C)c(=O)oc1ccccc12", "survival": "inactive: 94%"}, {"smiles": "CCN1CCN(CCCNC(=O)Cn2c(-c3cccs3)cc3cc(Cl)ccc32)CC1", "survival": "inactive: 94%"}, {"smiles": "COc1ccc(-c2nc(CNC(=O)Nc3ccccc3)c(C)o2)c(OC)c1", "survival": "inactive: 90%"}, {"smiles": "O=c1ccc(-c2ccccc2)nn1Cc1c(F)cccc1Cl", "survival": "inactive: 55%"}, {"smiles": "CCn1ccc2c(OCC(=O)Nc3ccc(OC)cc3OC)cccc2c1=O", "survival": "active: 20%"}, {"smiles": "COc1ccccc1CNC(=O)CCc1c(C)c2cc3c(C)coc3cc2oc1=O", "survival": "inactive: 62%"}, {"smiles": "CCn1cc(C(=O)NCCC(C)C)c(=O)c2cc(S(=O)(=O)N(C)C3CCCCC3)ccc21", "survival": "inactive: 66%"}, {"smiles": "CCC(=O)N1c2ccccc2CC1C(=O)NCCCN1CCN(c2ccc(OC)cc2)CC1", "note": "(centres undefined)", "survival": "inactive: 86%"}, {"smiles": "CCCCOc1ccc(CNC(=O)c2cnc3sc(N4CCCC4)nn3c2=O)cc1", "survival": "inactive: 113%"}, {"smiles": "Cc1c(Cl)cccc1NC(=O)C(=O)NCCc1csc2nc(-c3ccccc3F)nn12", "survival": "active: 6%"}, {"smiles": "CC1CCCCN1c1cc2c(cc1F)c(=O)c(S(=O)(=O)c1ccccc1)cn2Cc1ccccc1", "note": "(centres undefined)", "survival": "inactive: 107%"}, {"smiles": "O=C(Cn1c(-c2cccs2)cc2cc(F)ccc21)NCCc1ccc(Cl)cc1", "survival": "inactive: 91%"}, {"smiles": "O=S(=O)(Nc1ccc(O)c(Sc2nc3ccccc3s2)c1)c1cc(Cl)ccc1Cl", "survival": "active: -8%"}, {"smiles": "COc1cccc(-c2nc(CS(=O)(=O)CC(=O)N3CCN(c4ccccc4)CC3)c(C)o2)c1", "survival": "inactive: 63%"}, {"smiles": "CC(=O)Nc1ccc2nc(NC(=O)c3cc4ccccc4o3)sc2c1", "survival": "inactive: 102%"}, {"smiles": "Cc1ccc(Cl)cc1N1CCN(C(=O)c2ccc3c(Cl)c4c(nc3c2)CCCC4)CC1", "survival": "active: 31%"}, {"smiles": "O=C(Cn1c(=O)ccc2cc(S(=O)(=O)N3CCCC3)ccc21)Nc1ccccc1", "survival": "inactive: 57%"}, {"smiles": "CC(C)CCNC(=O)c1cnc2sc(N3CCCCCC3)nn2c1=O", "survival": "inactive: 78%"}, {"smiles": "Cc1oc(CC(C)C)c(CN2CCOCC2)c1C(=O)O", "survival": "inactive: 79%"}, {"smiles": "COc1ccc(-n2nc3c(N4CCC(C(=O)N5CCC(C)CC5)CC4)nnc(C)c3c2C)cc1", "survival": "inactive: 91%"}, {"smiles": "COc1ccc(CNC(=O)c2ccc(Cn3c(=O)c4cccn4c4cccnc43)cc2)c(OC)c1", "survival": "active: 58%"}, {"smiles": "Cc1ccc(O)c(NC(=O)c2cc(-c3ccc(F)cc3)no2)c1", "survival": "inactive: 77%"}, {"smiles": "Cc1nc2c3cccnc3nn2c(C)c1CCC(=O)NCc1ccccc1", "survival": "inactive: 110%"}, {"smiles": "CCN(CC)S(=O)(=O)c1ccc2c(c1)nc(CN(C)C(=O)Nc1ccc(C)c(Cl)c1)n2C", "survival": "inactive: 86%"}, {"smiles": "COc1ccc(Nc2ncc(C(=O)Nc3cccc(Cl)c3)c3ccccc23)cc1", "survival": "inactive: 53%"}, {"smiles": "CCc1ccc(NC(=O)C(=O)NCC(c2ccc3c(c2)OCO3)N2CCN(C)CC2)cc1", "note": "(centres undefined)", "survival": "inactive: 94%"}, {"smiles": "Cc1ccc(OCC(=O)NCC2(N3CCN(C)CC3)CCCCC2)cc1", "survival": "inactive: 76%"}, {"smiles": "NC(=O)C1CCN(c2csc3ccc(F)cc3c2=O)CC1", "survival": "inactive: 101%"}, {"smiles": "CCn1c(CN2CCN(C)CC2)nc2cc(NC(=O)c3ccc([N+](=O)[O-])cc3)ccc21", "survival": "inactive: 90%"}]}]}
